Laboratory results reported in the supplement of paper PMC4604168 (melanoma cell lines).
The other results are listed elsewhere or left out. Most values come without repeats; read them as rough.

Tests used:
Experiment in all cases: cell count relative to DMSO control; melanoma cells; higher = more viable cells
Conditions in all cases: library dose: standard library concentration; 72 h
SkMel28 = system: SkMel28
SkMel2 = system: SkMel2
SkMel30 = system: SkMel30
SkMel5 = system: SkMel5
UACC257 = system: UACC257
UACC62 = system: UACC62
WM115 = system: WM115
WM1716 = system: WM1716
WM1745 = system: WM1745
WM3526 = system: WM3526
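Also: cells treated in 1,536-well plates, then fixed and DAPI-stained, with nuclei counted from automated high-throughput microscope images.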

Compound	cell count (SkMel28)	cell count (SkMel2)	cell count (SkMel30)	cell count (SkMel5)	cell count (UACC257)	cell count (UACC62)	cell count (WM115)	cell count (WM1716)	cell count (WM1745)	cell count (WM3526)
CN(c1ncccc1CNc1nc(Nc2ccc3c(c2)CC(=O)N3)ncc1C(F)(F)F)S(C)(=O)=O + CN1CCN(c2ccc3nc(-c4c(N)c5c(F)cccc5[nH]c4=O)[nH]c3c2)CC1 [Dovitinib] (first compound 0.4 µM, partner dose 0.5 µM)	52.4%	59.1%	66.7%	53.7%	67.8%	65.4%	64.2%	76.4%	41.5%	70.9%
C=C(c1ccc(C(=O)O)cc1)c1cc2c(cc1C)C(C)(C)CCC2(C)C [Bexarotene] + NCC(=O)Nc1ccc(-n2nc(C(F)(F)F)cc2-c2ccc3c(ccc4ccccc43)c2)cc1 [OSU03012] (first compound 10 µM, partner dose 5 µM)	27%	20.6%	25.2%	54.5%	77%	62.3%	80.2%	92.1%	85.4%	44.2%
CN(c1ncccc1CNc1nc(Nc2ccc3c(c2)CC(=O)N3)ncc1C(F)(F)F)S(C)(=O)=O + O=C(CCCCCCC(=O)Nc1ccccc1)NO [vorinostat] (first compound 0.4 µM, partner dose 0.4 µM)	47.5%	70.1%	82%	70.9%	65.1%	60.8%	68.8%	95.1%	75.5%	80.4%
NC1(c2ccc(-c3nc4ccn5c(=O)[nH]nc5c4cc3-c3ccccc3)cc2)CCC1 + Nc1ccn([C@@H]2O[C@H](CO)[C@@H](O)C2(F)F)c(=O)n1 [gemcitabine] (first compound 2 µM, partner dose 0.002 µM)	55.8%	67.6%	89.2%	68.1%	94.4%	61.9%	56.4%	56.7%	52.9%	58.9%
NC1(c2ccc(-c3nc4ccn5c(=O)[nH]nc5c4cc3-c3ccccc3)cc2)CCC1 + OCc1c[nH]c2ccccc12 [Indole-3-carbinol] (first compound 2 µM, partner dose 4 µM)	54.3%	75.1%	90.9%	54.6%	90.1%	72.9%	70.8%	79.6%	77.1%	63.5%
CN(c1ncccc1CNc1nc(Nc2ccc3c(c2)CC(=O)N3)ncc1C(F)(F)F)S(C)(=O)=O + C#Cc1cccc(Nc2ncnc3cc(OCCOC)c(OCCOC)cc23)c1 [erlotinib] (first compound 0.4 µM, partner dose 4 µM)	56.9%	58%	71.5%	44.3%	94.5%	55.9%	64.1%	76%	40.9%	69%
C=C(c1ccc(C(=O)O)cc1)c1cc2c(cc1C)C(C)(C)CCC2(C)C [Bexarotene] + OCc1c[nH]c2ccccc12 [Indole-3-carbinol] (first compound 10 µM, partner dose 4 µM)	74.3%	90.9%	101%	106%	94.6%	94.3%	117%	84.9%	119%	106%
NC1(c2ccc(-c3nc4ccn5c(=O)[nH]nc5c4cc3-c3ccccc3)cc2)CCC1 + Clc1ccc(Nc2nnc(Cc3ccncc3)c3ccccc23)cc1 [vatalanib] (first compound 2 µM, partner dose 10 µM)	40.4%	41.8%	65.6%	40.9%	68%	35.2%	51.9%	67.5%	41.1%	42.6%
C=C(c1ccc(C(=O)O)cc1)c1cc2c(cc1C)C(C)(C)CCC2(C)C [Bexarotene] + CC(=O)c1c(C)c2cnc(Nc3ccc(N4CCNCC4)cn3)nc2n(C2CCCC2)c1=O [palbociclib] (first compound 10 µM, partner dose 0.2 µM)	43.7%	50.3%	69.1%	60%	83.5%	56.4%	85.1%	37.8%	78.4%	51.6%
CCCS(=O)(=O)Nc1ccc(F)c(C(=O)c2c[nH]c3ncc(Cl)cc23)c1F + C=CCNC1=C2C[C@@H](C)C[C@H](OC)[C@H](O)[C@@H](C)/C=C(\C)[C@H](OC(N)=O)[C@@H](OC)/C=C\C=C(/C)C(=O)NC(=CC1=O)C2=O [Tanespimycin] (first compound 0.4 µM, partner dose 0.01 µM)	48.1%	112%	76.8%	93.4%	104%	47%	39.1%	76.3%	77.2%	84.3%
C=C(c1ccc(C(=O)O)cc1)c1cc2c(cc1C)C(C)(C)CCC2(C)C [Bexarotene] + COc1ccc(Cl)c(Nc2nc3ccccc3nc2NS(=O)(=O)c2cccc(NC(=O)C(C)(C)N)c2)c1 [XL147] (first compound 10 µM, partner dose 4 µM)	88.2%	95.8%	106%	84.7%	65.5%	89.6%	92.4%	85.8%	79.1%	94.9%
CN(c1ncccc1CNc1nc(Nc2ccc3c(c2)CC(=O)N3)ncc1C(F)(F)F)S(C)(=O)=O + CO[C@@H]1[C@H](N(C)C(=O)c2ccccc2)C[C@H]2O[C@]1(C)n1c3ccccc3c3c4c(c5c6ccccc6n2c5c31)C(=O)NC4 [Midostaurin] (first compound 0.4 µM, partner dose 0.4 µM)	63.1%	51.1%	77%	43.9%	68.8%	72.2%	32.8%	38.7%	36.9%	78.1%
C=C(c1ccc(C(=O)O)cc1)c1cc2c(cc1C)C(C)(C)CCC2(C)C [Bexarotene] + C=CCn1c(=O)c2cnc(Nc3ccc(N4CCN(C)CC4)cc3)nc2n1-c1cccc(C(C)(C)O)n1 [MK1775] (first compound 10 µM, partner dose 0.1 µM)	43.6%	79.8%	77.5%	70%	99.9%	59%	102%	73.7%	54.3%	74.4%
C=C(c1ccc(C(=O)O)cc1)c1cc2c(cc1C)C(C)(C)CCC2(C)C [Bexarotene] + O=C(Nc1cccc(Cl)c1)Nc1ncc(CCNc2ncnc3ccsc23)s1 [SNS314] (first compound 10 µM, partner dose 0.004 µM)	54.4%	69.5%	98.7%	79.2%	78.6%	100%	60.3%	50.8%	65.8%	67.8%
C=C(c1ccc(C(=O)O)cc1)c1cc2c(cc1C)C(C)(C)CCC2(C)C [Bexarotene] + COc1cc2c(Oc3ccc4[nH]c(C)cc4c3F)ncnc2cc1OCCCN1CCCC1 [cediranib] (first compound 10 µM, partner dose 2 µM)	81.8%	85%	110%	101%	81.5%	87.8%	83.8%	76.8%	85.2%	97%
C=C(c1ccc(C(=O)O)cc1)c1cc2c(cc1C)C(C)(C)CCC2(C)C [Bexarotene] + C[C@]1(c2nc3c(C(N)=O)cccc3[nH]2)CCCN1 [Veliparib] (first compound 10 µM, partner dose 7 µM)	61.8%	82.6%	88.5%	78.6%	82.6%	64.2%	93.9%	75.1%	83.7%	70.1%
CS(=O)(=O)c1ccc(C(=O)Nc2ccc(Cl)c(-c3ccccn3)c2)c(Cl)c1 [vismodegib] + C=CCn1c(=O)c2cnc(Nc3ccc(N4CCN(C)CC4)cc3)nc2n1-c1cccc(C(C)(C)O)n1 [MK1775] (first compound 5 µM, partner dose 0.1 µM)	51%	78.6%	75.6%	57.8%	90.1%	65.8%	86.9%	80.9%	55.2%	90%

Compound	cell count (SkMel28)	cell count (SkMel2)	cell count (SkMel30)	cell count (SkMel5)	cell count (UACC257)	cell count (UACC62)	cell count (WM115)	cell count (WM1716)	cell count (WM1745)	cell count (WM3526)
CCCS(=O)(=O)Nc1ccc(F)c(C(=O)c2c[nH]c3ncc(Cl)cc23)c1F + COCC[n+]1c2c(n(Cc3cnccn3)c1C)C(=O)c1ccccc1C2=O [YM155] (first compound 0.4 µM, partner dose 0.002 µM)	44%	38.7%	72.1%	38.7%	36.9%	62%	61.6%	66.2%	88.2%	39.3%
CS(=O)(=O)c1ccc(C(=O)Nc2ccc(Cl)c(-c3ccccn3)c2)c(Cl)c1 [vismodegib] + OCCn1cc(-c2cnc3nnn(Cc4ccc5ncccc5c4)c3n2)cn1 [PF04217903] (first compound 5 µM, partner dose 5 µM)	88.4%	83.9%	108%	82.3%	105%	91.4%	101%	86.5%	94.8%	76.3%
NC1(c2ccc(-c3nc4ccn5c(=O)[nH]nc5c4cc3-c3ccccc3)cc2)CCC1 + CC(=O)c1c(C)c2cnc(Nc3ccc(N4CCNCC4)cn3)nc2n(C2CCCC2)c1=O [palbociclib] (first compound 2 µM, partner dose 0.2 µM)	30%	59.3%	59.1%	48.9%	83.9%	55.4%	57.2%	36.5%	67%	44.8%
NC1(c2ccc(-c3nc4ccn5c(=O)[nH]nc5c4cc3-c3ccccc3)cc2)CCC1 + CN1CCN(c2ccc3nc(-c4c(N)c5c(F)cccc5[nH]c4=O)[nH]c3c2)CC1 [Dovitinib] (first compound 2 µM, partner dose 0.5 µM)	34.6%	43.4%	71.9%	46.7%	74.7%	66.9%	53.5%	64.5%	46.9%	47.1%
NC1(c2ccc(-c3nc4ccn5c(=O)[nH]nc5c4cc3-c3ccccc3)cc2)CCC1 + Nc1nc(F)nc2c1ncn2[C@@H]1O[C@H](CO)[C@@H](O)[C@@H]1O [fludarabine] (first compound 2 µM, partner dose 1 µM)	3.99%	1.78%	21.5%	26.7%	36.4%	62.4%	72.8%	83.3%	68.1%	27.6%
NC1(c2ccc(-c3nc4ccn5c(=O)[nH]nc5c4cc3-c3ccccc3)cc2)CCC1 + Cn1nnc2c(C(N)=O)ncn2c1=O [temozolomide] (first compound 2 µM, partner dose 10 µM)	44.4%	97.3%	61.4%	61.6%	87.2%	61.9%	67.6%	54.8%	82.1%	59.4%
C=C(c1ccc(C(=O)O)cc1)c1cc2c(cc1C)C(C)(C)CCC2(C)C [Bexarotene] + OCCn1cc(-c2cnc3nnn(Cc4ccc5ncccc5c4)c3n2)cn1 [PF04217903] (first compound 10 µM, partner dose 5 µM)	62.2%	80.5%	110%	82.9%	84.2%	70.8%	61.4%	63.8%	59.2%	76.4%
CN(c1ncccc1CNc1nc(Nc2ccc3c(c2)CC(=O)N3)ncc1C(F)(F)F)S(C)(=O)=O + Cn1cncc1[C@@](N)(c1ccc(Cl)cc1)c1ccc2c(c1)c(-c1cccc(Cl)c1)cc(=O)n2C [tipifarnib] (first compound 0.4 µM, partner dose 0.05 µM)	59.9%	88.9%	105%	82.9%	84.3%	69.5%	69.6%	62.1%	63.7%	107%
CCCS(=O)(=O)Nc1ccc(F)c(C(=O)c2c[nH]c3ncc(Cl)cc23)c1F + CC(C)(C)c1cnc(CSc2cnc(NC(=O)C3CCNCC3)s2)o1 [SNS-032] (first compound 0.4 µM, partner dose 0.05 µM)	29.9%	71.2%	79%	52.1%	80.3%	50.9%	37.4%	57%	50.3%	47.1%
CN(c1ncccc1CNc1nc(Nc2ccc3c(c2)CC(=O)N3)ncc1C(F)(F)F)S(C)(=O)=O + OCc1c[nH]c2ccccc12 [Indole-3-carbinol] (first compound 0.4 µM, partner dose 4 µM)	56.5%	70.3%	86%	61%	65%	63.1%	65%	73.4%	62.6%	79.8%
C=C(c1ccc(C(=O)O)cc1)c1cc2c(cc1C)C(C)(C)CCC2(C)C [Bexarotene] + O=C(CCCCCCC(=O)Nc1ccccc1)NO [vorinostat] (first compound 10 µM, partner dose 0.4 µM)	34.7%	90.3%	131%	60.9%	73.3%	78.3%	68.9%	69.9%	73.5%	81.8%
CCCS(=O)(=O)Nc1ccc(F)c(C(=O)c2c[nH]c3ncc(Cl)cc23)c1F + Nc1cccc2c1CN(C1CCC(=O)NC1=O)C2=O [lenalidomide] (first compound 0.4 µM, partner dose 5 µM)	60%	143%	103%	66.9%	99%	55.7%	107%	76.5%	85.6%	62.8%
CN(c1ncccc1CNc1nc(Nc2ccc3c(c2)CC(=O)N3)ncc1C(F)(F)F)S(C)(=O)=O + CC1(C)NC(=O)N(c2ccc([N+](=O)[O-])c(C(F)(F)F)c2)C1=O [nilutamide] (first compound 0.4 µM, partner dose 5 µM)	68.2%	86.5%	95.8%	79.8%	86.4%	105%	68.9%	88.2%	66.4%	98%
CS(=O)(=O)c1ccc(C(=O)Nc2ccc(Cl)c(-c3ccccn3)c2)c(Cl)c1 [vismodegib] + Cc1ccc(NC(=O)c2cccc(N(C)C)c2)cc1NC(=O)c1ccc(O)cc1 [ZM336372] (first compound 5 µM, partner dose 10 µM)	154%	106%	107%	105%	101%	81.6%	98%	135%	97%	95.2%
NC1(c2ccc(-c3nc4ccn5c(=O)[nH]nc5c4cc3-c3ccccc3)cc2)CCC1 + CO[C@@H]1[C@H](N(C)C(=O)c2ccccc2)C[C@H]2O[C@]1(C)n1c3ccccc3c3c4c(c5c6ccccc6n2c5c31)C(=O)NC4 [Midostaurin] (first compound 2 µM, partner dose 0.4 µM)	51.5%	57.1%	90.4%	46.1%	71%	66.3%	46.2%	37.1%	31.9%	63%
CN(c1ncccc1CNc1nc(Nc2ccc3c(c2)CC(=O)N3)ncc1C(F)(F)F)S(C)(=O)=O + C[C@@H]1CCN(C(=O)CC#N)C[C@@H]1N(C)c1ncnc2[nH]ccc12 [CP690550] (first compound 0.4 µM, partner dose 5 µM)	133%	92.6%	124%	107%	91.2%	78.8%	86.3%	92.2%	93%	105%
CCCS(=O)(=O)Nc1ccc(F)c(C(=O)c2c[nH]c3ncc(Cl)cc23)c1F + CN(C)S(=O)(=O)c1ccc2c(c1)/C(=C/c1cc3c([nH]1)CCCC3)C(=O)N2 [SU6656] (first compound 0.4 µM, partner dose 2 µM)	48.6%	78.1%	78.4%	58.7%	79.5%	45.7%	53.2%	52.1%	53.3%	55.5%
